Test [1] addresses Qri7 with a C-terminal FLAG tag or a C-terminal Myc tag (yeast) (UniProt P43122). The test is described as follows: co-IP; differently tagged proteins co-expressed in HEK293T; lysis in 50 mM Tris-HCl pH 7.5, 150 mM NaCl, 5 mM EDTA, 1% Triton X-100; anti-FLAG, anti-HA or anti-Myc antibodies overnight, Dynabeads protein G, washed with PBST; western blot. For orientation: In western blotting, separated proteins are transferred to a membrane and probed.

By UniProt entry, the sequences of proteins in these tests, tags left out. Residues count along the entry.
UniProt P43122, residues 31-407: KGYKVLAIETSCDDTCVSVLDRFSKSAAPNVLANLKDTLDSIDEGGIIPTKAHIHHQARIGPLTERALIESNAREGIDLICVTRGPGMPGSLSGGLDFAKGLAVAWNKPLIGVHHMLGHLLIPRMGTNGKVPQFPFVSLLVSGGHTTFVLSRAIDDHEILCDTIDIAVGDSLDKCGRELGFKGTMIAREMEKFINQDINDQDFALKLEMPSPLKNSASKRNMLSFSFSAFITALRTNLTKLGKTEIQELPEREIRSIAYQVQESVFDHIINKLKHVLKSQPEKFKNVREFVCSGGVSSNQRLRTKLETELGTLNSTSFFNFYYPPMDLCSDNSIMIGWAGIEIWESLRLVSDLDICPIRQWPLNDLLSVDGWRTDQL

Test [2] addresses T1, OSGEPL1 with a C-terminal FLAG tag or a C-terminal Myc tag (human) (UniProt Q9H4B0).
T1 sequence: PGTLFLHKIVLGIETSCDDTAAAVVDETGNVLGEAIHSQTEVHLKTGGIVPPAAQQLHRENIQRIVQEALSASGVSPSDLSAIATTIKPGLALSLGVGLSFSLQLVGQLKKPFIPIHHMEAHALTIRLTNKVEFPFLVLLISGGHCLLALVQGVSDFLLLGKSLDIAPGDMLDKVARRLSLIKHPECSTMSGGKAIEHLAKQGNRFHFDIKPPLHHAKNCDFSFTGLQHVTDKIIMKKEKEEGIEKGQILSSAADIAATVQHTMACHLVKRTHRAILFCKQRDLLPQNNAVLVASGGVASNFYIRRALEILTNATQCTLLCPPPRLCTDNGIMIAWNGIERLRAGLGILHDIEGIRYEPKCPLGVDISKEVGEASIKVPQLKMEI
The description is as above.

In test [3] the target is T2, YrdC with a C-terminal HA tag (human) (UniProt Q86U90).
T2 sequence: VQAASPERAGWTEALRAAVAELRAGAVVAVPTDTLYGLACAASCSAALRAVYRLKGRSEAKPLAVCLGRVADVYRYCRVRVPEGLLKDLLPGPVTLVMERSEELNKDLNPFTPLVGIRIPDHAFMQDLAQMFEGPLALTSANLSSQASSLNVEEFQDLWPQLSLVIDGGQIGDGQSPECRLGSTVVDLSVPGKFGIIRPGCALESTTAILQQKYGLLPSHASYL
The test is described as above.

For test [4], the target named is Mature OSGEPL1 (Leu35-Ile414) without the MTS (human) (UniProt Q9H4B0). The test is described as follows: SEC; purified OSGEPL1 on a Superdex 75 column (HPLC), 50 mM Tris-HCl pH 8.0, 150 mM NaCl, 0.5 ml/min; mass from a calibration with five standard proteins; both purified. On the technique in general: In gel filtration, larger molecules generally elute earlier.

Results are given in words; binding and its absence hold for the method and conditions named. For part of these data: Binding seen in cells or lysates may run through a third protein. Some entries that bind do so weakly or less than the wild type. For part of these data: Tags and fused reporters may be left off the sequences shown.

As to “Qri7 with a C-terminal FLAG tag or a C-terminal Myc tag (from UniProt P43122 31-407) (enzyme)”, the binding entry in test [1] is “binds”.

B1: OSGEPL1 with a C-terminal FLAG tag or a C-terminal Myc tag (enzyme, UniProt Q9H4B0 30-414)
chain: T1 sequence
As for B1, the binding result in test [2] and in test [3] was “no binding” throughout.

B2: YrdC with a C-terminal HA tag (enzyme, UniProt Q86U90 56-279)
chain: T2 sequence
Take B2: the binding entry in test [2] and in test [3] was “no binding” in each case.

B3: Mature OSGEPL1 (Leu35-Ile414) without the MTS (enzyme, UniProt Q9H4B0 35-414)
chain: LHKIVLGIETSCDDTAAAVVDETGNVLGEAIHSQTEVHLKTGGIVPPAAQQLHRENIQRIVQEALSASGVSPSDLSAIATTIKPGLALSLGVGLSFSLQLVGQLKKPFIPIHHMEAHALTIRLTNKVEFPFLVLLISGGHCLLALVQGVSDFLLLGKSLDIAPGDMLDKVARRLSLIKHPECSTMSGGKAIEHLAKQGNRFHFDIKPPLHHAKNCDFSFTGLQHVTDKIIMKKEKEEGIEKGQILSSAADIAATVQHTMACHLVKRTHRAILFCKQRDLLPQNNAVLVASGGVASNFYIRRALEILTNATQCTLLCPPPRLCTDNGIMIAWNGIERLRAGLGILHDIEGIRYEPKCPLGVDISKEVGEASIKVPQLKMEI
Take B3: the binding result in test [4] was “no binding”.

Values taken from paper PMC7102964.
